Source: a collection of fitness landscapes (doi:10.1016/j.celrep.2020.107928)
The full ranking holds about 81,000 sequences; the median of “one-hybrid fitness for binding parS DNA” is about -0.17, and the highest 2% start at about 0.51. This is one part of the list.

B1: Caulobacter ParB omega fusion; a variant is named by its letters at X, in order, B8GW30 (parent)
chain: MESVVVGEPGMSEGRRGLGRGLSALLGEVDAAPAQAPGEQLGGSREAPIEILQRNPDQPRRTFREEDLEDLSNSIREKGVLQPILVRPSPDTAGEYQIVAGERAWRAAQRAGLKTVPIMVRELDDLAVLEIGIIENVQRADLNVLEEALSYKVLMEKFERTQENIAQTIGKSXSHVANXMRLLXLPDEVQSYLVSGELTAXHARAIAAAADPVALAKQIIEGGLSVRETEALARKAPNLSAGKSKGGRPPRVKDTDTQALESDLSSVLGLDVSIDHRGSTGTLTITYATLEQLDDLCNRLTRGI

Variants of: B1
Assay: one-hybrid fitness for binding parS DNA (scaled: cognate 1, non-cognate 0); higher = stronger binding
Settings: with parS DNA site
Outline: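 On M9-minus-histidine containing 0.1 mM IPTG and 5 mM 3-AT, E. coli USO cells with a HIS3 reporter, site 19 bp from the promoter, grew 48 hours at 37°C to select Caulobacter ParB libraries randomised at four specificity codons. Plasmids from before and after were Illumina-sequenced, with three replicate libraries pooled and variants under 10 reads left out. Fitness is the log change in variant-to-wild-type read ratio, rescaled against cognate and non-cognate.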

| Variant | one-hybrid fitness for binding parS DNA |
| --- | --- |
| PYPF | ≤ 0.2 |
| ERVT | ≤ 0.2 |
| FASS | ≤ 0.2 |
| FEFD | ≤ 0.2 |
| SESY | ≤ 0.2 |
| QRGY | ≤ 0.2 |
| FINL | ≤ 0.2 |
| GAPR | ≤ 0.2 |
| VSVA | ≤ 0.2 |
| RQCF | 0.211 |
| VFGK | ≤ 0.2 |
| STIF | ≤ 0.2 |
| FLTP | ≤ 0.2 |
| DAPY | ≤ 0.2 |
| VGQR | ≤ 0.2 |
| IPGS | ≤ 0.2 |
| VVCC | ≤ 0.2 |
| MANG | ≤ 0.2 |
| FTRG | ≤ 0.2 |
| WGTC | ≤ 0.2 |
| FRKM | ≤ 0.2 |
| RVGH | ≤ 0.2 |
| AYFQ | ≤ 0.2 |
| WTLT | ≤ 0.2 |
| IQIR | ≤ 0.2 |
| RVGK | ≤ 0.2 |

| Variant | one-hybrid fitness for binding parS DNA |
| --- | --- |
| WSLC | ≤ 0.2 |
| CFPC | ≤ 0.2 |
| SIWR | ≤ 0.2 |
| TERV | ≤ 0.2 |
| SKHN | ≤ 0.2 |
| GQIC | ≤ 0.2 |
| SNYP | ≤ 0.2 |
| VFRT | ≤ 0.2 |
| HVTW | ≤ 0.2 |
| PRYG | ≤ 0.2 |
| PQWT | ≤ 0.2 |
| GKRG | ≤ 0.2 |
| TGWC | ≤ 0.2 |
| MGAT | ≤ 0.2 |
| QQSK | ≤ 0.2 |
| YNVL | ≤ 0.2 |
| MNLQ | ≤ 0.2 |
| MART | ≤ 0.2 |
| QLYF | ≤ 0.2 |
| LLKS | ≤ 0.2 |
| ASDL | ≤ 0.2 |
| KDIG | ≤ 0.2 |
| ALVN | ≤ 0.2 |
| QWLH | ≤ 0.2 |
| LTYT | ≤ 0.2 |
| QMPA | ≤ 0.2 |

| Variant | one-hybrid fitness for binding parS DNA |
| --- | --- |
| ENTW | ≤ 0.2 |
| HYYI | ≤ 0.2 |
| FKGR | ≤ 0.2 |
| LANA | ≤ 0.2 |
| NDSW | ≤ 0.2 |
| GCDL | ≤ 0.2 |
| TLTT | ≤ 0.2 |
| GPTQ | ≤ 0.2 |
| THAT | ≤ 0.2 |
| THPL | ≤ 0.2 |
| DNLS | ≤ 0.2 |
| GMVT | ≤ 0.2 |
| PRAK | ≤ 0.2 |
| EKEY | 0.273 |
| AEVS | ≤ 0.2 |
| LSIV | ≤ 0.2 |
| LFTS | ≤ 0.2 |
| WWDG | ≤ 0.2 |
| TRNN | ≤ 0.2 |
| RCEN | 0.412 |
| TQPC | ≤ 0.2 |
| ISLL | ≤ 0.2 |
| YNLH | ≤ 0.2 |
| AAIC | ≤ 0.2 |
| QNEL | ≤ 0.2 |
| EVIS | ≤ 0.2 |

| Variant | one-hybrid fitness for binding parS DNA |
| --- | --- |
| LATQ | ≤ 0.2 |
| SMFR | ≤ 0.2 |
| PFQW | ≤ 0.2 |
| GSDV | ≤ 0.2 |
| RSII | ≤ 0.2 |
| VFDG | ≤ 0.2 |
| TWNE | ≤ 0.2 |
| TCDC | ≤ 0.2 |
| KRLG | ≤ 0.2 |
| LWNA | ≤ 0.2 |
| VNTF | ≤ 0.2 |
| FGNI | ≤ 0.2 |
| ACMF | ≤ 0.2 |
| HNNS | ≤ 0.2 |
| FGGP | 0.223 |
| DQLR | ≤ 0.2 |
| VWAT | ≤ 0.2 |
| AMEL | ≤ 0.2 |
| FFST | ≤ 0.2 |
| AQTY | ≤ 0.2 |
| STAW | ≤ 0.2 |
| FGAI | ≤ 0.2 |
| PDCG | ≤ 0.2 |
| QAFI | ≤ 0.2 |
| QPTC | ≤ 0.2 |
| MSWV | ≤ 0.2 |

| Variant | one-hybrid fitness for binding parS DNA |
| --- | --- |
| EALR | ≤ 0.2 |
| ELTE | ≤ 0.2 |
| VSEV | ≤ 0.2 |
| MIFR | ≤ 0.2 |
| IGQR | ≤ 0.2 |
| FGRD | ≤ 0.2 |
| YTHM | ≤ 0.2 |
| TAIW | ≤ 0.2 |
| HSTM | ≤ 0.2 |
| RHSS | 0.912 |
| LKKI | ≤ 0.2 |
| EMNS | ≤ 0.2 |
| LWHC | ≤ 0.2 |
| QKMT | ≤ 0.2 |
| SVAN | ≤ 0.2 |
| AKVT | ≤ 0.2 |
| VQGW | ≤ 0.2 |
| LQYT | ≤ 0.2 |
| MPNS | ≤ 0.2 |
| KYSW | ≤ 0.2 |
| RMNS | 0.911 |
| INNG | ≤ 0.2 |
| KVYG | ≤ 0.2 |
| RWKS | 0.961 |
| KSQT | ≤ 0.2 |
| QHWG | ≤ 0.2 |

| Variant | one-hybrid fitness for binding parS DNA |
| --- | --- |
| HKIG | ≤ 0.2 |
| SCAG | ≤ 0.2 |
| DTLY | ≤ 0.2 |
| YHRL | ≤ 0.2 |
| KWTN | ≤ 0.2 |
| DTDY | ≤ 0.2 |
| VALR | ≤ 0.2 |
| RHAH | 0.202 |
| FGTL | ≤ 0.2 |
| CAWS | ≤ 0.2 |
| MTWT | ≤ 0.2 |
| HTCR | ≤ 0.2 |
| TKTS | ≤ 0.2 |
| DPLY | ≤ 0.2 |
| PVYG | ≤ 0.2 |
| KCAC | ≤ 0.2 |
| DVVR | ≤ 0.2 |
| WFST | ≤ 0.2 |
| RDYE | ≤ 0.2 |
| FEVF | ≤ 0.2 |
| CNLS | ≤ 0.2 |
| DKKT | ≤ 0.2 |
| TQEV | ≤ 0.2 |
